Data from paper PMC4336329 (PLoS ONE, 2015).
Out of some 310,000 compounds screened, about 2,200 (0.71%) showed an effect of 50% or more. The effect is printed as a negative number. Some of the results follow.

The compounds below were run against human ether-à-go-go-related gene (hERG) potassium channel (human, UniProt Q12809) (assay: primary screen, population patch clamp on CHO cells stably expressing hERG).
Sequence of human ether-à-go-go-related gene (hERG) potassium channel (Q12809 whole entry, looked up): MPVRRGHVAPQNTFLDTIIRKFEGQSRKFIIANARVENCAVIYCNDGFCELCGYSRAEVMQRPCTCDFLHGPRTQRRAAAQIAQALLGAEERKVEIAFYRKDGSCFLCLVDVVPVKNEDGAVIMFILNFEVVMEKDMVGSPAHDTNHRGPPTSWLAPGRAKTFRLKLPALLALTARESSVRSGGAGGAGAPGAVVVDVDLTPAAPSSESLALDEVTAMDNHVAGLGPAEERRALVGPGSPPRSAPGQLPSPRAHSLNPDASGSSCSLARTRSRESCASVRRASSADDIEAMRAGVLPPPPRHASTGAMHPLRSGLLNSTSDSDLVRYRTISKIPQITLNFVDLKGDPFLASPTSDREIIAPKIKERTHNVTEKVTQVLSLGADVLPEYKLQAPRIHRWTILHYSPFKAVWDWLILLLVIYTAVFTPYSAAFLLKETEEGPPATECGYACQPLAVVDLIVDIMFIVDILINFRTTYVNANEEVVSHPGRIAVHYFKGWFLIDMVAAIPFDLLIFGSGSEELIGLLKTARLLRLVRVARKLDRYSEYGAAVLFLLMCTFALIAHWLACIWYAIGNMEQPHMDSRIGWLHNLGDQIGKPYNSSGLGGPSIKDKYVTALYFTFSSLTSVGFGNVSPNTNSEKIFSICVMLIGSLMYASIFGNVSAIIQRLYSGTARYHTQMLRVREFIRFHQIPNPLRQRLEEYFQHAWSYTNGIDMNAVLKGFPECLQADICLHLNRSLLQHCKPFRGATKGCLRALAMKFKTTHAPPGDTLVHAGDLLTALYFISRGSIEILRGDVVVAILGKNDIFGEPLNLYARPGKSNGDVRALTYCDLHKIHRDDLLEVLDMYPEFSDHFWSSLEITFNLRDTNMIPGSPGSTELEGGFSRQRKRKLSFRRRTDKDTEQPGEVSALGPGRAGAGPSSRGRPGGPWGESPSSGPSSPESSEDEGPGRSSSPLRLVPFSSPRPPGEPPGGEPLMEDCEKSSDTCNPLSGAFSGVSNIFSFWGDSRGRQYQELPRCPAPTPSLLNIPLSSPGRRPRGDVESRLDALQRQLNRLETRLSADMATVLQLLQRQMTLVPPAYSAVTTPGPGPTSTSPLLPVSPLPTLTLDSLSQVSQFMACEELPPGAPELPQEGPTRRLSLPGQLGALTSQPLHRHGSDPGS

Structure (SMILES)	hERG current change (%, negative = inhibition) at 1uM
COC(=O)c1ccc(CSc2nc3c(cnn3-c3ccc(C)cc3)c(=O)[nH]2)o1	11.5%
O=C(C(=O)N1CCN(C(=O)c2ccco2)CC1)c1c[nH]c2ccccc12	6.21%
C=CCc1cccc(OC)c1OCCOCCn1ccnc1.O=C(O)C(=O)O	3.52%
COC(=O)c1ccc2nc(Nc3nc4ccc(F)cc4s3)sc2c1	3.46%
CCOc1ccc(C2NC(=O)C(C#N)=C(S)N2c2ccc(OC)cc2)cc1OC (centres unmarked)	3.66%
CN(CC(=O)Nc1cccc(F)c1)C(=O)C1CSC2(C)CCC(=O)N12 (centres unmarked)	7.55%
O=C(C[n+]1ccccc1)N1c2ccccc2Sc2ccccc21.[Cl-]	7.16%
CCc1ccc(NC(=S)N2CCN(C)CC2)cc1	13.8%
CCSc1nnc(NC(=O)CCn2c(=O)oc3ccccc32)s1	16.4%
COc1ccccc1CNC(=O)CS(=O)(=O)c1ccccc1	-14.4%
Cc1ccc(S(=O)(=O)N2CCCCC2)cc1NC(=O)COC(=O)Cc1cccc2ccccc12	-6.2%
CC(C)COC(=O)Cn1cnc2ccc(Br)cc2c1=O	6.01%
COc1ccc(OC)c(CCNC(=O)CCn2nc(C)c3c(C)n(-c4ccccc4)nc3c2=O)c1	13.8%
Clc1ccc(OCCCCCN2CCOCC2)cc1	-3.05%
CCOC(=O)C1(P(=O)(c2ccc(Cl)cc2)c2ccc(Cl)cc2)CCC1	-7.76%
Cc1ccc(C(CC(=O)N2CCCC2)c2ccccc2)c(O)c1 (centres unmarked)	9.48%
COC(=O)COc1ccc(NS(=O)(=O)c2cccc([N+](=O)[O-])c2)cc1	15.3%
O=C(COC(=O)C1(c2ccc(F)cc2)CCCC1)NCc1ccco1	5.84%
CCOc1ccc(CN(C)C(=O)c2cccc(S(=O)(=O)N3CCCC3)c2)cc1OC	7.52%
COC1=C(OC)c2ccccc2C(C(=O)O)N/C1=C(/C)Nc1ccncc1 (centres unmarked)	-0.985%
O=C(NCCc1c[nH]c2ccccc12)/C(=C\c1cccnc1)NC(=O)c1ccccc1F	-4.23%
O=C1NC(=O)C(=Cc2ccc(N3CCN(C(=O)c4ccccc4)CC3)c([N+](=O)[O-])c2)C(=O)N1	-20.9%

Structure (SMILES)	hERG current change (%, negative = inhibition) at 1uM
O=C(CC1(O)C(=O)Nc2ccccc21)c1ccc2c(c1)OCO2 (centres unmarked)	-0.406%
Cc1c(C(=O)N(C)C2CCCCC2)sc2ncnc(N3CCN(c4ccccc4F)CC3)c12	-0.556%
CCCN1CCN(CCCNC(=O)c2ccc(NC(=O)C3=C(C)OCCS3)cc2)CC1	10.1%
Cc1ccc(N(CC(=O)N2CCn3c2nc2ccccc23)S(=O)(=O)c2c(C)n[nH]c2C)cc1	-7.48%
CCn1cnc2cc(NCc3ccc(Cl)cc3)ccc21	1.06%
COc1ccc(NS(=O)(=O)c2ccc(-c3coc(C)n3)cc2)cc1OC	18.7%
C[C@H](NC(=O)c1nc[nH]c1C(=O)N[C@@H](Cc1ccccc1)C(=O)OCc1ccccc1)c1ccccc1	10.7%
Cc1cc(C(=O)N[C@H](c2ccccc2)[C@@]2(C)C[C@@H]2[C@@H](C)C(=O)Nc2ccc3ccccc3c2)no1	4.33%
O=C(C1CC(c2ccc(F)cc2)=NO1)N1CCCc2ccccc21 (centres unmarked)	5.13%
Cc1cc(=O)oc2cc(OCC(=O)NC3CC(C)(C)NC(C)(C)C3)c(Cl)cc12	21.2%
COC(=O)c1cc(CSc2nnc(-c3ccccc3)c(-c3ccccc3)n2)oc1C	13.4%
CC(=O)NCCc1ccc(S(=O)(=O)Nc2ccc3c(c2)OCCO3)cc1	14.4%
COc1cccc(-c2nc3ccccc3s2)c1	9.73%
Cc1nn(-c2ccccc2)c(C)c1NC(=O)COC(=O)c1ccccc1OC(F)F	16%
CSc1cccc(CN2CCN(Cc3ccccc3)C(CCO)C2)c1 (centres unmarked)	-1.33%
Cc1ccc(Sc2oc(/C=N/n3cnnc3)cc2Br)cc1	8.72%
COc1nc(N)nc(NC23CC4CC(CC(C4)C2)C3)n1	-14.4%
Cc1ccc(C(=O)NC(C)CCc2ccccc2)cc1[N+](=O)[O-] (centres unmarked)	-0.573%
COCCCNC(=O)c1cc(S(=O)(=O)N2CCOCC2)ccc1SCc1cccc(OC)c1OC	-11.1%
CC(C)(C)OC(=O)N1CCC(c2c(C(=O)NC3CC3)cnn2-c2ccccc2)CC1	10.5%
COc1ccc(N(CC(=O)NC2CCCCCC2)S(=O)(=O)c2c(C)nn(C)c2C)cc1	-5.15%
O=C(CS(=O)c1ccc(C(F)(F)F)cc1[N+](=O)[O-])Oc1ccc(Cl)cc1 (centres unmarked)	19.2%

Structure (SMILES)	hERG current change (%, negative = inhibition) at 1uM
N#Cc1ccc(Cl)cc1NC(=O)CNCc1cccs1.O=C(O)C(=O)O	1.05%
O=C1c2ccccc2-c2nc3ccccc3nc21	-9.46%
CCc1sc(NS(C)(=O)=O)nc1-c1ccccc1	-1.55%
Nc1ccccc1SCc1cc([N+](=O)[O-])cc2c1OCOC2	0.0801%
CCN(CC)S(=O)(=O)c1cc(NC(=O)CNc2cccc(S(=O)(=O)N3CCCC3)c2)ccc1C	1.89%
CNC(=O)C(=O)NCC1OCCCN1S(=O)(=O)c1cccs1 (centres unmarked)	6.32%
Cc1cc(C)n(/N=C/c2ccccc2)c(=O)c1C#N	16.9%
Cc1ccc(NC(=O)c2cccc(S(=O)(=O)N3CCN(C)CC3)c2)cc1F	1.1%
Cc1cc(=O)c2c(C)nn(-c3ccccc3)c2[nH]1	7.95%
O=C(O)C1CC(=O)N(c2ccc3c(c2)OCCO3)C1 (centres unmarked)	6.4%
CCC(=O)N1CCN(c2nc(CC)nc3sc4c(c23)CCCC4)CC1	-1.87%
CCOc1ccccc1OCC(=O)Nc1ccc(S(=O)(=O)Nc2ncccn2)cc1	7.46%
O=C(O)CNC(=S)NCc1ccccc1	10.5%
CCN(CC)c1nc(NN)nc(Nc2ccc(C)c(Cl)c2)n1	11.7%
CCn1c(C(C)NC(=O)Cc2ccccc2)nc2ccccc21 (centres unmarked)	10.8%
O=S(=O)(NCCNc1ncc(C(F)(F)F)cc1Cl)C(F)(F)F	-5.55%
C/C(Cl)=C\Cn1c(O)c(N=NC(N)=S)c2cc(Br)ccc21	14.7%
CSc1ccc(/C=C/C(=O)c2c(O)cc(C)oc2=O)cc1	9.03%
COc1ccc(CCNC(=O)c2ccc(CNc3nc(=S)[nH]c4ccccc34)cc2)cc1OC	8.17%
COc1cc(-c2c(C#N)c(N)nc3c2CCCC3)cc(OC)c1OC	2.13%
O=C(COc1ncnc2ccc(Br)cc12)Nc1ccc(N2CCOCC2)cc1	4.29%
O=C(NC1CCCCC1)C(c1ccncc1)N(Cc1ccccc1)C(=O)c1ccc(-c2ccccc2)[nH]1 (centres unmarked)	15.6%

Structure (SMILES)	hERG current change (%, negative = inhibition) at 1uM
CCOC(=O)C1CCCN(c2nc3ccccc3nc2C(C#N)C(=O)OCC)C1 (centres unmarked)	7.03%
COCCCN(C(=O)CCSc1ccc(F)cc1)c1c(N)n(Cc2ccccc2)c(=O)[nH]c1=O	10.1%
O=C(NCCN1C(=O)S/C(=C\c2ccccc2F)C1=O)C1=COCCO1	3.53%
CCOC(=O)c1sc(NC(=O)CN2C(=O)NC3(CC(C)CC(C)(C)C3)C2=O)c(C(=O)OCC)c1C (centres unmarked)	10.6%
COc1ccccc1CNC(=O)C(=O)NCC1OCCN1C(=O)c1ccc(Cl)cc1 (centres unmarked)	3.47%
C=Cc1ccc(C(=O)N2CCCC(CCC(=O)N3CCN(c4ccccn4)CC3)C2)cc1 (centres unmarked)	10.2%
CNNC(=S)Nc1cccc(SC)c1	14.3%
CCOc1ccc(C(=O)NCc2ccco2)cc1OCC	11.8%
S=C1NCCNC(=S)NCCOCCN1	13.3%
Cc1nc([N+](=O)[O-])cn1CC(=O)Nc1ccc(Cl)cc1	14.3%
Cc1ccccc1C(=O)OCCCN=C1NS(=O)(=O)c2ccccc21	1.75%
CC(=O)c1c(C)[nH]c(C(=O)OCn2nnc3ccccc3c2=O)c1C	10.7%
CC(C)[C@H](NC(=O)[C@H]1N2C(=O)c3ccccc3C2SC1(C)C)C(=O)NCc1ccco1 (some centres unmarked)	11.4%
COCCN(C(=S)Nc1ccc(C(C)C)cc1)C(C)c1cccs1 (centres unmarked)	10.1%
Cc1c(NC(=O)C(C)OC(=O)/C=C/c2ccc(OC(F)F)cc2)c(=O)n(-c2ccccc2)n1C (centres unmarked)	4.66%
CN(C)c1ccc(/C=C(/C(=O)c2ccc(Cl)cc2Cl)n2cncn2)cc1	15.7%
Cn1c(=O)c(C(=O)Nc2ccccc2S(N)(=O)=O)c(O)c2ccccc21	3.42%
COc1cc(Cl)c([C@@H]2C[C@H]3CN(c4ccccc4)C(=O)[C@]34CCCN24)cc1OC	-47.3%
C=CCNC(=O)Nc1ccc(Br)cc1Cl	14.9%
O=C(CNC(=O)/C(=C/c1ccccc1)NC(=O)c1ccc(Br)cc1)OCc1ccccc1	2.24%
